About 65 (0.1%) of roughly 45,000 compounds were called active. Calls follow the shape of the dose curve; as a rule, active = well fitted activation curve with a large enough effect; inconclusive = small, poorly fitted or top-dose-only effect; inactive = no such curve, though single readings can be large or run the other way. This is one part of the list.
biological target: Galactocerebrosidase (Homo sapiens) (UniProt P54803); test: A Novel Cell-Based Assay to Identify Small Molecules for B -Galactocerebrosidase; conditions: 145M-Twi-hGALC-G270D cells (Twitcher mouse brain line with human GALC G270D), HMU-beta-Gal fluorescence, 48 h; series mostly up to 57.5 µM; activation: at the top concentration; also: 0% is about no effect; nearly all actives have a fitted effect of over 65% in size
Chain of UniProt P54803 (P54803 whole entry, looked up): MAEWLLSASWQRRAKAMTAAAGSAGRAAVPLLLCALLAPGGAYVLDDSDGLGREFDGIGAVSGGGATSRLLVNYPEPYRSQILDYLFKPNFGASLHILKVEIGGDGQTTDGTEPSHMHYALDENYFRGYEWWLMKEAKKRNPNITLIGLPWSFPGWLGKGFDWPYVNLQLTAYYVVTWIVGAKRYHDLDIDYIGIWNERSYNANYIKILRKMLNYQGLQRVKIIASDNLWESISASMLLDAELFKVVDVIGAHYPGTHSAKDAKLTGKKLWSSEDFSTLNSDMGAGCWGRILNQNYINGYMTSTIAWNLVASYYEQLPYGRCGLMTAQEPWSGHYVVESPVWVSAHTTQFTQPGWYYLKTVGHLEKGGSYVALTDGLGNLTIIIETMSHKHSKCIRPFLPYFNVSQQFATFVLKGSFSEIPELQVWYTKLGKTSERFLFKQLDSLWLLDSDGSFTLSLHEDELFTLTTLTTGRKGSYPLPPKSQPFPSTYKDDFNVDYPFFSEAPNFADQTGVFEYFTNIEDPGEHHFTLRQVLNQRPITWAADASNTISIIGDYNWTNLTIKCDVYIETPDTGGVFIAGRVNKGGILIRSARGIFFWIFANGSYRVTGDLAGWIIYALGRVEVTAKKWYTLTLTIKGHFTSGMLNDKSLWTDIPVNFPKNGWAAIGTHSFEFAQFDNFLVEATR
Method in brief: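 Fluorescence readout: HMU-β-gal cleavage by mutant GALC (0.1 mM final, citrate/phosphate pH 5.2 with 1 mg/mL taurocholate), stopped with carbonate/bicarbonate plus Triton X-100. Cells: murine Twitcher 145M-Twi expressing human G270D GALC; qHTS for activators.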

activation, inactive:
CCCn1c(=O)sc2cc(NC(=O)c3ccccc3Cl)ccc21 6.39%
Cc1c(Cl)cccc1NC(=O)Nc1c[nH]c(=O)[nH]c1=O 1.13%
Cc1cccc(NC(=O)CSc2nc3c([nH]c4ccccc43)c(=O)n2-c2cc(C)cc(C)c2)c1 -6.15%
CC1CCCCN1C(=O)CSc1nc(-c2ccccc2)no1 (stereo unspecified) -2.06%
COc1cc(/C=C(/C#N)c2nc(-c3cc4ccccc4oc3=O)cs2)ccc1O -10.1%
CCOC(=O)C1=C(CN2CCC(C)CC2)NC(=O)NC1c1ccc(OC(C)C)cc1 (stereo unspecified) -3.43%
CCOC(=O)c1ccccc1NC(=O)CSc1nc(=O)[nH]c2c1CCCC2 -11.5%
CSc1cccc(-n2nnc(-c3nsc(NC(=O)c4cccs4)n3)c2C)c1 -8.22%
COc1cccc(CNC(=O)Cn2c(=O)ccc3cc(S(=O)(=O)N4CCCC4)ccc32)c1 -6.57%
CCc1ccc(S(=O)(=O)c2nnn3c2nc(N(C)Cc2ccccc2)c2cc(Cl)ccc23)cc1 -0.45%
COc1ccc(Nc2nc3c(S(=O)(=O)c4ccccc4)nnn3c3ccc(Cl)cc23)cc1 -22.9%
Cc1cc(=O)n(CC(=O)N2CCCCC2)c2c1c(C)nn2C -6.09%
CCN(CC)CCCNC(=O)c1cn(CC)c2ccc(S(=O)(=O)N3CCC(C)CC3)cc2c1=O -14.7%
CCc1ccc2occ(CC(=O)N(Cc3ccccc3)C3CCS(=O)(=O)C3)c2c1 (stereo unspecified) -7.35%
Cc1ccc(NC(=O)CN2C(=O)C(c3ccccc3)=NC23CCCCC3)cc1C 1.28%
CCS(=O)(=O)N1CCCc2cc(C(=O)Nc3cc([N+](=O)[O-])ccc3C)ccc21 -26.3%
COc1ccc(-n2c(C)nc3c(cnn3-c3ccc(C)c(C)c3)c2=O)cc1Cl -4.07%
CC(C)(C)c1cc(C=O)cc(C(C)(C)C)c1O -10.7%
COc1ccc(NC(=O)Cn2c(=O)n(CCCC(=O)NCc3ccccc3Cl)c(=O)c3ccccc32)c(OC)c1 2.35%
Cc1cccc(CNC(=O)c2ccc3c(c2)N(C)CCS3)c1 -3.82%
CCc1ccc(C(c2ccccc2)c2c(C)[nH]c3ccccc23)s1 (stereo unspecified) 15.7%
Cc1cc(C)c(NC(=O)CSc2nc3ccccc3c3nc(-c4ccccc4)nn23)c(C)c1 -19.8%
Cc1ccc(C)c(N2CCN(S(=O)(=O)c3ccc4[nH]c5c(c4c3)CCCC5)CC2)c1 -15.5%
COc1ccc(CNCc2c(C(=O)O)c(C)n(Cc3ccccc3C)c2C)cc1OC -11.7%
COc1ccc(N2CCN(c3ncccc3-c3nc(-c4ccccc4C)no3)CC2)cc1 -1.95%
CCOC(=O)c1sc2ccccc2c1S(=O)(=O)Nc1cc(OC)ccc1OC -10.1%
Cc1ccccc1CNC(=O)Cn1nc(C)c2nn(-c3ccc(Cl)cc3)c(C)c2c1=O -18.6%
Fc1ccc(N2CCN(Cc3nnc(-c4ccccc4Cl)o3)CC2)cc1 -16.2%
O=C1c2[nH]nc(-c3ccccc3O)c2C(c2cccc(OCc3ccccc3)c2)N1CCCO (stereo unspecified) -6.27%
CCc1cccc(C)c1Nc1c(-c2ccc(F)cc2)nc2sccn12 2.21%
COc1ccc(Cn2c(SCc3ccc(C(=O)NC4CCCCC4)cc3)nc3ccncc32)cc1 -10.1%
COc1ccc(CNS(=O)(=O)c2ccc(C(=O)N(C)C)s2)cc1 -10.5%
COc1ccccc1N1CCN(c2nc3c(S(=O)(=O)c4ccccc4)nnn3c3ccc(Cl)cc23)CC1 -13.9%
CCOC(=O)c1scc(-c2ccccc2)c1S(=O)(=O)Nc1ccccc1OC 0.623%
N#Cc1nc(-c2ccc(COc3ccc(Cl)cc3)o2)oc1N1CCCCC1 -12.9%
Cc1ccc(CNc2nc(-c3ccco3)nn2C(=O)c2ccccc2[N+](=O)[O-])cc1 -5.21%
Cc1ccc2c(=O)c(C(=O)c3ccccc3)cn(CC(=O)NCc3ccccc3)c2n1 -18%
CCOc1ccc(NC(=O)CSc2ncc(S(=O)(=O)c3ccc(F)c(C)c3)c(=O)[nH]2)cc1 -9.14%
COc1ccc(S(=O)(=O)N2CCC(Oc3cccc(C(F)(F)F)c3)CC2)cc1OC 8.22%
O=C(CCCN1CCN(c2ccccn2)CC1)c1ccc(F)cc1 -0.85%
CC(C)OCCCNC(=O)c1cn(C)c2ccc(S(=O)(=O)N(C)C3CCCCC3)cc2c1=O -16.4%
COc1ccc(N2CC(C(=O)NCCS(=O)(=O)N3CCN(c4ccccc4)CC3)CC2=O)cc1 (stereo unspecified) -10.5%
Cc1ccc2occ(-c3cc(-c4ccccc4)nc4c3COc3ccccc3-4)c(=O)c2c1 -10.5%
CCOC(=O)c1cc(-c2ccccc2)n(CCCC(=O)Nc2ccc(C)c(Cl)c2)c1C -12.2%
Cc1ccc(-n2c(=O)c3c(C)c(C(=O)N(C)C)sc3n(CC(=O)N(C)c3ccccc3)c2=O)cc1C -8.46%
Cc1ccc(C)c(NC(=O)CSc2nc3nccnc3c(=O)n2CCc2c[nH]c3ccccc23)c1 -13.3%
Cc1c(C(=O)N2CCCC2)oc2c1-c1nn(CC(=O)NCc3ccc(OC(C)C)cc3)cc1CC2 -10.3%
CCc1cccc(NC(=O)c2cnc(N3CCOCC3)c3ccccc23)c1 -4.22%
CN(CC(=O)Nc1ccc(OC(F)(F)F)cc1)S(=O)(=O)c1ccc2c(c1)CCC(=O)N2 -17%
CCN(CC)S(=O)(=O)c1ccc2c(c1)N(CC(=O)N1CCN(c3cccc(C)c3)C(C)C1)C(=O)CO2 (stereo unspecified) -11.2%
COc1cc(C(=O)NC2(C(F)(F)F)C(=O)NC(C)=C2C#N)cc(OC)c1OC (stereo unspecified) -13.8%
CCN(C(=O)CSc1nc2ccccc2c2nc(CCn3c(C)nc4ccccc43)nn12)c1cccc(C)c1 -20.1%
COc1ccc(-c2csc3nc(-c4ccc(Cl)cc4)oc(=O)c23)cc1 -17.1%
Cc1cccc(NC(=O)CCn2cnnn2)c1 8.12%
CCc1cccc(C)c1NC(=O)CN1CCN(Cc2ccccc2Cl)S1(=O)=O 5.17%
CCc1ccc(NC(=O)Cn2c(=O)c3cccn3c3ccccc32)cc1 2.14%
O=C(Nc1ccc(-c2nc3cc(Cl)ccc3o2)cc1)c1cc(Br)ccc1Cl -10.6%
Cn1c(=O)oc2cc(S(=O)(=O)NC(CC(=O)O)c3cccc(Br)c3)ccc21 (stereo unspecified) -15.6%
COc1ccc(NC(=O)CSc2nnc(N)s2)cc1 -6.94%
CC(=O)c1ccc(N2CCN(C(=O)Nc3ccc(C)cc3)CC2)cc1 -6.67%
Cc1ccc(Nc2c(-c3ccc(N4CCOCC4)cc3)nc3ccc(C)cn23)cc1 8.63%

From PubChem BioAssay AID1159614 (National Center for Advancing Translational Sciences (NCATS), 2016)
